Measured values taken from the antibiotic and cytotoxicity screens of Wong et al. (2023).
The list shows a part of the results.

Test system: HSkMC (human skeletal muscle cells)
Experiment: cytotoxicity call (relative viability < 0.9)
Conditions: 10 µM

SMILES | cytotoxicity call
C[C@H]1CN([C@@H](C)CO)C(=O)c2cc(NC(=O)Nc3ccc4c(c3)OCO4)ccc2O[C@@H]1CN(C)S(C)(=O)=O | inactive
C=C(CC)C(=O)c1ccc(OCC(=O)O)c(Cl)c1Cl | inactive
CCc1nc2ccc(C(=O)N3CCN(S(=O)(=O)CC)CC3)cn2c1N(C=O)Cc1ccc(OC)cc1 | inactive
C[C@H](CO)N1C[C@H](C)[C@@H](CN(C)Cc2ccncc2)OCCCC[C@H](C)Oc2ccc(NC(=O)Nc3ccc(F)cc3)cc2C1=O | inactive
C[C@@H]1CN([C@@H](C)CO)C(=O)Cc2cc(NC(=O)c3ccncc3)ccc2O[C@@H]1CN(C)S(=O)(=O)c1cccs1 | inactive
CN(C)c1nc(N)nc(Cn2ccnc2)n1 | inactive
C[C@H](CO)N1C[C@H](C)[C@H](CN(C)S(=O)(=O)c2cccc(F)c2)Oc2ncc(-c3cccc(C(=O)N(C)C)c3)cc2C1=O | inactive
Cc1noc(C)c1NC(=O)N(C)C[C@@H]1Oc2ccc(NC(=O)C3CC3)cc2CC(=O)N([C@H](C)CO)C[C@@H]1C | inactive
CC[C@H]1CN(C(=O)c2cnccn2)N1C | inactive
O=C(C[C@H]1CC[C@@H](NS(=O)(=O)c2ccc(F)cc2)[C@@H](CO)O1)NCc1ccc(Cl)c(Cl)c1 | inactive
CCCCCC/C=C\CCCCCCCC(=O)O | inactive
COC(=O)c1c(CC[C@@H](CO)NC(=O)N[C@H](Cn2cc(Cc3ccccc3)nn2)C(C)C)oc(C(C)=O)c1C(=O)OC | inactive
C[C@H](CO)N1C[C@H](C)[C@H](CN(C)C(=O)Nc2ccccc2)Oc2ccc(NS(C)(=O)=O)cc2C1=O | inactive
Cc1noc(C)c1S(=O)(=O)Nc1cccc2c1O[C@@H](CN(C)S(=O)(=O)c1cccs1)[C@@H](C)CN([C@H](C)CO)C2=O | inactive
C[C@H]1CN([C@@H](C)CO)C(=O)CCCn2cc(nn2)CO[C@@H]1CN(C)C(=O)Nc1ccc(C(C)(C)C)cc1 | inactive
C[C@@H]1CN([C@@H](C)CO)C(=O)c2cc(C#Cc3ccccc3)cnc2O[C@H]1CN(C)C(=O)CCN1CCCCC1 | inactive
N#CCC(=O)NN | inactive

SMILES | cytotoxicity call
C[C@H]1CN([C@@H](C)CO)C(=O)c2cc(Br)cnc2O[C@@H]1CN(C)C(=O)Nc1ccc(F)cc1 | inactive
C[C@@H]1CN([C@H](C)CO)C(=O)c2cc(NC(=O)Nc3ccc4c(c3)OCO4)ccc2O[C@@H](C)CCCCO[C@@H]1CN(C)Cc1ccc(C(=O)O)cc1 | inactive
CC(=NNC(=O)c1nnn(-c2nonc2N)c1CN1CCC(C)CC1)c1cccc(Br)c1 | inactive
O=C(CCCN1CCN(c2ccccn2)CC1)c1ccc(F)cc1 | inactive
C[C@@H]1CN([C@H](C)CO)S(=O)(=O)c2ccc(C3=CCCC3)cc2O[C@@H]1CN(C)C(=O)C1CCOCC1 | inactive
C[C@@H]1CCCCO[C@H](CN(C)C(=O)c2ccccc2)[C@@H](C)CN([C@H](C)CO)C(=O)c2cc(NC(=O)Nc3ccc4c(c3)OCO4)ccc2O1 | inactive
C[C@H](CO)N1C[C@H](C)[C@@H](CN(C)C(=O)Nc2ccc(F)cc2)OCCCC[C@H](C)Oc2ccc(NC(=O)Nc3ccc(F)cc3)cc2C1=O | inactive
C[C@H]1CN([C@@H](C)CO)C(=O)Cc2cc(NS(C)(=O)=O)ccc2O[C@H]1CN(C)C(=O)Nc1ccc2c(c1)OCO2 | inactive
Cc1ccc(S(=O)(=O)Nc2ccc3c(c2)C(=O)N([C@H](C)CO)C[C@H](C)[C@H](CN(C)Cc2ccncc2)OCCCC[C@H](C)O3)cc1 | inactive
COc1ccc(NC(=O)Nc2ccc3c(c2)CC(=O)N([C@@H](C)CO)C[C@@H](C)[C@@H](CN(C)S(=O)(=O)c2cn(C)cn2)O3)cc1 | inactive
C[C@H](CO)N1C[C@H](C)[C@@H](CN(C)C(=O)Nc2ccccc2)OCCCC[C@H](C)Oc2ccc(NC(=O)Nc3ccc4c(c3)OCO4)cc2C1=O | inactive
CC(=O)N1CCS(=O)(=O)[C@@H]2CCN(S(=O)(=O)c3ccccc3C)CC[C@@H]21 | inactive
O=C(CN1CCOCC1)N[C@H]1CC[C@H](CCNC(=O)Nc2cc(F)ccc2F)O[C@@H]1CO | inactive
Nc1ncnc2c1ncn2CCN1CCOCC1 | inactive
CC(C)NC(=O)Nc1ccc2c(c1)C(=O)N([C@@H](C)CO)C[C@H](C)[C@H](CN(C)S(=O)(=O)c1cn(C)cn1)O2 | inactive
C[C@@H]1CN([C@@H](C)CO)S(=O)(=O)c2ccc(-c3ccncc3)cc2O[C@H]1CN(C)C(=O)c1ccc2c(c1)OCO2 | inactive
